Measurements from patent US20210230280A1 (EXIRIS S R L, published 2021).

Target: T1, human chimeric receptor FGFR4-Fc (R&D Systems) (human, UniProt P22455 22-369)
T1 construct: extracellular domain; bought; also called hFGFR4-Fc; not shown: human IgG Fc
T1 sequence (looked up): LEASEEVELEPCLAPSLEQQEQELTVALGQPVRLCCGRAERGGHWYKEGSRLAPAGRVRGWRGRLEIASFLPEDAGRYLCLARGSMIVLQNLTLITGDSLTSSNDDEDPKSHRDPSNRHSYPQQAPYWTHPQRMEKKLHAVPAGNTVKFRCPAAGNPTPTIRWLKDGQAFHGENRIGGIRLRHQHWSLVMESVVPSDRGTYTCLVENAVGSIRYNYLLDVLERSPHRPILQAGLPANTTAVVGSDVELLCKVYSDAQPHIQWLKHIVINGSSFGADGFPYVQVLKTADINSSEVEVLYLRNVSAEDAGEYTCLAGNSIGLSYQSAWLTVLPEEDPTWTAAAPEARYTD
Experiment: solid phase binding assay, FGF19 with heparin on FGFR4-Fc

B1: recombinant FGF19 (Peprotech) (ligand)
chain: not shown
notes: added with equimolar low molecular weight heparin
Kd: 23 nM
